# Read-outs that look alike come from different tables or passages of the source. Results are given in words; binding and its absence hold for the method and conditions named. Binding seen in cells or lysates may run through a third protein. Some results given as binding are weak or reduced against the parent protein; the word gives no strength. For some assays here: Where a sequence is shown, tags or fusion partners need not be part of it.
# By UniProt entry, the sequences of proteins in these tests, tags left out. Where a name states a change or a piece, a line headed by the entry shows the natural chain unless it says otherwise. Residues count along the entry.
# UniProt Q96NL1: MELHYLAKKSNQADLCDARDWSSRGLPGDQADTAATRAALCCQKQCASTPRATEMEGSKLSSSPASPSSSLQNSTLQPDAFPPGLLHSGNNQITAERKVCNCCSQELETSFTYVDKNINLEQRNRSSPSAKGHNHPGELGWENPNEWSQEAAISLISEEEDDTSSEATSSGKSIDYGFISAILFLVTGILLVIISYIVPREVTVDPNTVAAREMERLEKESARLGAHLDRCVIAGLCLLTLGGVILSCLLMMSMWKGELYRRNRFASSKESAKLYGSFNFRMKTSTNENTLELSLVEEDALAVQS
# UniProt Q676U5: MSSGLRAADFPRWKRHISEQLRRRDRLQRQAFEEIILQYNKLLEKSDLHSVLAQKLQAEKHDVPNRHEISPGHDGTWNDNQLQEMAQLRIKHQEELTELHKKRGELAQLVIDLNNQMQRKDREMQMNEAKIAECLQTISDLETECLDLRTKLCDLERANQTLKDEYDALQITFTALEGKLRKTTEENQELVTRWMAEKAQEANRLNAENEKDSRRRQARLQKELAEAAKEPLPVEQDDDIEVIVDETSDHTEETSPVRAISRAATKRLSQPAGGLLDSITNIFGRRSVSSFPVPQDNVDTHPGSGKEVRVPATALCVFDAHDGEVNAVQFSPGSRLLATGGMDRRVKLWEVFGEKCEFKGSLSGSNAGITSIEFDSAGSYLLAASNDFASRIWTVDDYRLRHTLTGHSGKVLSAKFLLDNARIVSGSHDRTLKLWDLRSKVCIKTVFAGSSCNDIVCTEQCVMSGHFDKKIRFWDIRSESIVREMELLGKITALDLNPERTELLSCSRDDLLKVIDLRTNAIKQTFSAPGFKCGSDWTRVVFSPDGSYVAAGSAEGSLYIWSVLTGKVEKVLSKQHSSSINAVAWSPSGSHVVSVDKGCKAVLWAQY
# GFP-ATG16L1(1–320): residues 1-320 of Q676U5
# Columns and labels:
# [1] = biological target: GST-tagged full-length TMEM74 fusion protein (UniProt Q96NL1); assay: pull-down; GST or GST-TMEM74 on glutathione-Sepharose 4B beads with lysates of transfected HeLa cells, 4 h at 4 °C; five washes; western blot; only the target purified
# [2] = biological target: GFP-TMEM74 (UniProt Q96NL1); assay: co-IP; HeLa cells co-transfected for 24 h; total cell extracts (1 mg) with anti-GFP or isotype control IgG and protein G sepharose, 4 h at 4 °C; five washes (50 mM Tris pH 8.0, 150 mM NaCl, 0.4% NP-40, 5 mM MgCl2); western blot
# [3] = biological target: GFP-ATG16L1(1–320) (UniProt Q676U5); assay: as above
# [4] = biological target: GFP-ATG16L1 (UniProt Q676U5); assay: as above
# [5] = biological target: T1, GFP-ATG9A (UniProt Q7Z3C6); assay: as above
# T1 sequence: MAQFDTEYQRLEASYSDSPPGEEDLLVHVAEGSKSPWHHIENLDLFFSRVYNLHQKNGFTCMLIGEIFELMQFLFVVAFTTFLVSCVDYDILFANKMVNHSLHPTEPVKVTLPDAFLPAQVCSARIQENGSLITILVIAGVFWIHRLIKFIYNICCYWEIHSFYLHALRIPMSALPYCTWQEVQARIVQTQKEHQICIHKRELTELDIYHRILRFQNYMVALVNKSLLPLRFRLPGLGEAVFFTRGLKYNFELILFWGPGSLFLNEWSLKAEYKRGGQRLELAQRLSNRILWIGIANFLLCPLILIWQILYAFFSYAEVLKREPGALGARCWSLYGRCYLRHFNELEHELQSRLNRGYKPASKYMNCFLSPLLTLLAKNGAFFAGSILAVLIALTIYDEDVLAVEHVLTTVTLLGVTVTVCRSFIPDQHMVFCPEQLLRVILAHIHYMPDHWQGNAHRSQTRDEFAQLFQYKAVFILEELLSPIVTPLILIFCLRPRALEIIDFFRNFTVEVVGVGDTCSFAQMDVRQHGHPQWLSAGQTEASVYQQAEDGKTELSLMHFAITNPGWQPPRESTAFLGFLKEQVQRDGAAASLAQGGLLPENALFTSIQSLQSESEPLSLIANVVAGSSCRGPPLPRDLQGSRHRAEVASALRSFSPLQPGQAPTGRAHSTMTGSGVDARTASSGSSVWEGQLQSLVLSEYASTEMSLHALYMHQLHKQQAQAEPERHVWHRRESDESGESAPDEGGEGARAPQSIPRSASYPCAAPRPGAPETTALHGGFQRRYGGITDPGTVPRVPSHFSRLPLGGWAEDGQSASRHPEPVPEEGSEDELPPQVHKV
# [6] = biological target: T2, GFP-ATG9A△(153–289) (UniProt Q7Z3C6); assay: as above
# T2 sequence: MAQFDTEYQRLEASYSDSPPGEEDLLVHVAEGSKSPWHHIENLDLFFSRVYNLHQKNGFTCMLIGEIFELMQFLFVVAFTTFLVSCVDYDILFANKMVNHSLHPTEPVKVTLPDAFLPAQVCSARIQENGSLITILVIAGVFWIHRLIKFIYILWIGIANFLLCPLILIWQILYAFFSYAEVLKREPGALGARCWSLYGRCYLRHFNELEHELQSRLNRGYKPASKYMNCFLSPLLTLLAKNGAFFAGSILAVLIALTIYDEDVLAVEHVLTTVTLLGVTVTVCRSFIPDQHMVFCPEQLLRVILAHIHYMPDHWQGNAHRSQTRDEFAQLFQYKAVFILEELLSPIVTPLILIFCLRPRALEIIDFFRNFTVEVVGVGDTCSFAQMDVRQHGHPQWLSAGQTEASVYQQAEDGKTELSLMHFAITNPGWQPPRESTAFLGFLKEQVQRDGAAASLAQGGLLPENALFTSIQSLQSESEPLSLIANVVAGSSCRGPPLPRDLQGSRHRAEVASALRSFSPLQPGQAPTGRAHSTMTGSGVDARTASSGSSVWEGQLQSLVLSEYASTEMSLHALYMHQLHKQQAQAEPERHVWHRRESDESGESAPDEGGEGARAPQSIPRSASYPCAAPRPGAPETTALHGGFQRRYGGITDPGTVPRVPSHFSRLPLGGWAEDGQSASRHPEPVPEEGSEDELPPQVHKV
# [7] = biological target: T3, GFP-ATG9A△(1–495) (UniProt Q7Z3C6); assay: as above
# T3 sequence: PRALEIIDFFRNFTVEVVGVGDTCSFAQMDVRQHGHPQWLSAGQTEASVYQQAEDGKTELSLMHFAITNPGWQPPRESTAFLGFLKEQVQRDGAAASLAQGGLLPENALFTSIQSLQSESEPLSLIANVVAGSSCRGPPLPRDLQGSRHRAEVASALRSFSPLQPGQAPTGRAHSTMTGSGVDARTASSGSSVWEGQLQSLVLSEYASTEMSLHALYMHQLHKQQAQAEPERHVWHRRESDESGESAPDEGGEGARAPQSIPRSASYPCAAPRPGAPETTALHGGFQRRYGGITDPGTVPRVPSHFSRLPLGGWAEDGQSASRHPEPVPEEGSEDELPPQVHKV
# [8] = biological target: T4, GFP-ATG9A(1–495) (UniProt Q7Z3C6); assay: as above
# T4 sequence: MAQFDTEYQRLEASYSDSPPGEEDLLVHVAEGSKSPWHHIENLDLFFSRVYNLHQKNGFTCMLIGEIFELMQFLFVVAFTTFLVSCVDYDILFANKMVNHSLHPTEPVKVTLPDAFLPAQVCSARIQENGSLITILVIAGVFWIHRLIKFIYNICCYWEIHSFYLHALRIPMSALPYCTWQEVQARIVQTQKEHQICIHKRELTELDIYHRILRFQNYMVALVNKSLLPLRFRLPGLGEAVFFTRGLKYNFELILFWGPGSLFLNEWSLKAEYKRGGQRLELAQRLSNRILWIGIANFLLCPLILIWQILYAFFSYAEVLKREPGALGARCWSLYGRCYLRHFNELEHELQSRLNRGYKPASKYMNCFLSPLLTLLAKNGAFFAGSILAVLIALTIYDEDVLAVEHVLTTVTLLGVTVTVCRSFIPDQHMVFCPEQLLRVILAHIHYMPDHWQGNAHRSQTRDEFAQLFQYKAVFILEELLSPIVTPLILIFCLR
# [9] = biological target: GST-tagged full-length TMEM74 fusion protein (UniProt Q96NL1); assay: pull-down; GST or GST-TMEM74 on glutathione-Sepharose 4B beads with lysates of transfected HeLa cells, 4 h at 4 °C; five washes; western blot; only the target purified; remark: listed apart in the source
# [10] = biological target: T1, GFP-ATG9A; assay: co-IP; HeLa cells treated with siTMEM74-1, siTMEM74-2 or siControl for 24 h, then transfected with the GFP-tagged bait for 24 h and treated with EBSS for at least 8 h; IP with anti-GFP or non-specific control IgG; endogenous prey by western blot
molecule,measurement,setting,value
GFP-ATG16L1 (from UniProt Q676U5 1-607),binding,[1],binds
endogenous ATG16L1 (from UniProt Q676U5 1-607),binding,[2],binds
endogenous TMEM74 (from UniProt Q96NL1 1-305),binding,[3],binds
same,binding,[4],binds
same,binding,[5],binds
mCherry-TMEM74 (from UniProt Q96NL1 1-305),binding,[3],binds
same,binding,[3]; record 2,no binding
same,binding,[6],no binding
same,binding,[7],no binding
same,binding,[4],binds
same,binding,[5],binds
same,binding,[8],binds
"GFP-ATG9A (protein, UniProt Q7Z3C6 1-839) MAQFDTEYQRLEASYSDSPPGEEDLLVHVAEGSKSPWHHIENLDLFFSRVYNLHQKNGFTCMLIGEIFELMQFLFVVAFTTFLVSCVDYDILFANKMVNHSLHPTEPVKVTLPDAFLPAQVCSARIQENGSLITILVIAGVFWIHRLIKFIYNICCYWEIHSFYLHALRIPMSALPYCTWQEVQARIVQTQKEHQICIHKRELTELDIYHRILRFQNYMVALVNKSLLPLRFRLPGLGEAVFFTRGLKYNFELILFWGPGSLFLNEWSLKAEYKRGGQRLELAQRLSNRILWIGIANFLLCPLILIWQILYAFFSYAEVLKREPGALGARCWSLYGRCYLRHFNELEHELQSRLNRGYKPASKYMNCFLSPLLTLLAKNGAFFAGSILAVLIALTIYDEDVLAVEHVLTTVTLLGVTVTVCRSFIPDQHMVFCPEQLLRVILAHIHYMPDHWQGNAHRSQTRDEFAQLFQYKAVFILEELLSPIVTPLILIFCLRPRALEIIDFFRNFTVEVVGVGDTCSFAQMDVRQHGHPQWLSAGQTEASVYQQAEDGKTELSLMHFAITNPGWQPPRESTAFLGFLKEQVQRDGAAASLAQGGLLPENALFTSIQSLQSESEPLSLIANVVAGSSCRGPPLPRDLQGSRHRAEVASALRSFSPLQPGQAPTGRAHSTMTGSGVDARTASSGSSVWEGQLQSLVLSEYASTEMSLHALYMHQLHKQQAQAEPERHVWHRRESDESGESAPDEGGEGARAPQSIPRSASYPCAAPRPGAPETTALHGGFQRRYGGITDPGTVPRVPSHFSRLPLGGWAEDGQSASRHPEPVPEEGSEDELPPQVHKV",binding,[9],binds
"endogenous WIPI1 (protein, UniProt Q5MNZ9 1-446) MEAEAADAPPGGVESALSCFSFNQDCTSLATGTKAGYKLFSLSSVEQLDQVHGSNEIPDVYIVERLFSSSLVVVVSHTKPRQMNVYHFKKGTEICNYSYSSNILSIRLNRQRLLVCLEESIYIHNIKDMKLLKTLLDIPANPTGLCALSINHSNSYLAYPGSLTSGEIVLYDGNSLKTVCTIAAHEGTLAAITFNASGSKLASASEKGTVIRVFSVPDGQKLYEFRRGMKRYVTISSLVFSMDSQFLCASSNTETVHIFKLEQVTNSRPEEPSTWSGYMGKMFMAATNYLPTQVSDMMHQDRAFATARLNFSGQRNICTLSTIQKLPRLLVASSSGHLYMYNLDPQDGGECVLIKTHSLLGSGTTEENKENDLRPSLPQSYAATVARPSASSASTVPGYSEDGGALRGEVIPEHEFATGPVCLDDENEFPPIILCRGNQKGKTKQS",binding,[10],binds
